Measurements published in patent US11365205B2 (Aurigene Discovery Technologies Limited, priority 2018, dated 2022).

Biological target: PRMT5/MEP50 Complex (Homo sapiens (Human), UniProt O14744)
Assay: PRMT5 inhibition based on TR-FRET assay
Type: biochemical
Conditions: 32 nM PRMT5:MEP50, 50 nM Histone-H4 peptide, 1 μM SAM
Source text: PRMT5 Inhibition Based on TR-FRET Assay:
Protein arginine methyltransferase 5 (PRMT5) is a type II arginine methyltransferase that catalyze mono- and symmetric demethylation on arginine residues of histone or non-histone proteins in presence of S-adenosylmethionine (AdoMet or SAM) a cofactor responsible for donating the methyl group. PRMT5 is reported to be overexpressed in several human cancers. To identify compounds that inhibit the PRMT5 and decrease its activity, a TR-FRET based assay has been established. Time-resolved fluorescence resonance energy transfer (TR-FRET) HTS assays are homogeneous proximity assays where the interaction of two dye-labeled binding partners is detected by the energy transfer between a donor and an acceptor dye and the subsequent light emission by the acceptor dye. PRMT5 catalyzes Histone H4 peptide which is biotin tagged to the Lysine amino acid at carboxyl end, in presence of S-adenosyl-1-methionine (SAM) to methylate the peptide. The antibody specific to mono methylated H4 peptide (H4R3) with Ig conjugate binds to the methylated peptide, indirectly binding to the Europium lanthanide. […]
The compound dilutions were prepared as 7.5% DMSO stock solutions in assay buffer. […] The plates were then read on Victor-3 with Excitation at 340 nm and Emissions collected at 615 and 665 nm in TR-FRET protocol. […]

UniProt O14744, sequence (O14744 whole entry): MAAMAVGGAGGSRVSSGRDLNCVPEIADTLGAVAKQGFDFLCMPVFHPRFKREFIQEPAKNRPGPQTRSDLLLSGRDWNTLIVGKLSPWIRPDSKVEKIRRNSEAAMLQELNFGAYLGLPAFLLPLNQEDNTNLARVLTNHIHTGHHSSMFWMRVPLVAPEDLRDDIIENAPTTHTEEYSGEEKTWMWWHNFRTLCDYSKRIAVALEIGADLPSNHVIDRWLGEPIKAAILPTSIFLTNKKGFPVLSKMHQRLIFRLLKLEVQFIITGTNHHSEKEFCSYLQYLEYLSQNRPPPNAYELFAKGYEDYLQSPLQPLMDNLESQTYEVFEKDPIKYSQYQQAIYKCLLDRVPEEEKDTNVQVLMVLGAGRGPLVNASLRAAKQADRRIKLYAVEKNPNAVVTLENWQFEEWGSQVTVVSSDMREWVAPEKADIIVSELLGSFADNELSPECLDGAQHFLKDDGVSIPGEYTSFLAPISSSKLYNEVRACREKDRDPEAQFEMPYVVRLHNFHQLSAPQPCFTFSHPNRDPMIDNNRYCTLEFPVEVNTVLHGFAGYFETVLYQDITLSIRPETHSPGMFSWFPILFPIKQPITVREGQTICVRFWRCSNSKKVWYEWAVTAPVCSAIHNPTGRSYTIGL
UniProt O14744, sequence (Q9BQA1 whole entry partner): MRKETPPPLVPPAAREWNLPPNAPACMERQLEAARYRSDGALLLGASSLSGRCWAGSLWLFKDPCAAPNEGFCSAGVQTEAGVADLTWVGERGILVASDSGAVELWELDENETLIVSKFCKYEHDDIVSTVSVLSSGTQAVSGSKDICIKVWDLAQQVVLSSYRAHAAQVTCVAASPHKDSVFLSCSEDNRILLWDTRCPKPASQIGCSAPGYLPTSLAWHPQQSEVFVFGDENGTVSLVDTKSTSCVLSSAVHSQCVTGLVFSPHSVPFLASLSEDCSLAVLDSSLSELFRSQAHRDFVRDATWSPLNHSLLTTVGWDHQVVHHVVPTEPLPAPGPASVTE

SMILES | IC50 [µM]
O=C(Nc1ccc(CN2CCN(C[C@H](O)CN3CCc4ccccc4C3)C2=O)nc1)C1CCOCC1 [Example 107, (R)-N-(6-((3-(3-(3,4-dihydroisoquinolin-2(1H)-yl)-2-hydroxypropyl)-2-oxoimidazolidin-1-yl)methyl)pyridin-3-yl)tetrahydro-2H-pyran-4-carboxamide] | 0.1
CC(C)c1ccc(CN2C(=O)N(CC(O)CN3CCc4ccccc4C3)C(C)(C)C2=O)nc1 (centres unmarked) [Example 30, 1-(3-(3,4-Dihydroisoquinolin-2(1H)-yl)-2-hydroxypropyl)-3-((5-isopropylpyridin-2-yl)methyl)-5,5-dimethylimidazolidine-2,4-dione] | 0.13
